Among all 310,000 compounds or so, about 2,200 (0.71%) showed an effect of 50% or more. Effects have a minus sign here. This is one part of the list.
target: human ether-à-go-go-related gene (hERG) potassium channel (human, UniProt Q12809); test: primary screen, population patch clamp on CHO cells stably expressing hERG
Sequence (Q12809 whole entry, looked up): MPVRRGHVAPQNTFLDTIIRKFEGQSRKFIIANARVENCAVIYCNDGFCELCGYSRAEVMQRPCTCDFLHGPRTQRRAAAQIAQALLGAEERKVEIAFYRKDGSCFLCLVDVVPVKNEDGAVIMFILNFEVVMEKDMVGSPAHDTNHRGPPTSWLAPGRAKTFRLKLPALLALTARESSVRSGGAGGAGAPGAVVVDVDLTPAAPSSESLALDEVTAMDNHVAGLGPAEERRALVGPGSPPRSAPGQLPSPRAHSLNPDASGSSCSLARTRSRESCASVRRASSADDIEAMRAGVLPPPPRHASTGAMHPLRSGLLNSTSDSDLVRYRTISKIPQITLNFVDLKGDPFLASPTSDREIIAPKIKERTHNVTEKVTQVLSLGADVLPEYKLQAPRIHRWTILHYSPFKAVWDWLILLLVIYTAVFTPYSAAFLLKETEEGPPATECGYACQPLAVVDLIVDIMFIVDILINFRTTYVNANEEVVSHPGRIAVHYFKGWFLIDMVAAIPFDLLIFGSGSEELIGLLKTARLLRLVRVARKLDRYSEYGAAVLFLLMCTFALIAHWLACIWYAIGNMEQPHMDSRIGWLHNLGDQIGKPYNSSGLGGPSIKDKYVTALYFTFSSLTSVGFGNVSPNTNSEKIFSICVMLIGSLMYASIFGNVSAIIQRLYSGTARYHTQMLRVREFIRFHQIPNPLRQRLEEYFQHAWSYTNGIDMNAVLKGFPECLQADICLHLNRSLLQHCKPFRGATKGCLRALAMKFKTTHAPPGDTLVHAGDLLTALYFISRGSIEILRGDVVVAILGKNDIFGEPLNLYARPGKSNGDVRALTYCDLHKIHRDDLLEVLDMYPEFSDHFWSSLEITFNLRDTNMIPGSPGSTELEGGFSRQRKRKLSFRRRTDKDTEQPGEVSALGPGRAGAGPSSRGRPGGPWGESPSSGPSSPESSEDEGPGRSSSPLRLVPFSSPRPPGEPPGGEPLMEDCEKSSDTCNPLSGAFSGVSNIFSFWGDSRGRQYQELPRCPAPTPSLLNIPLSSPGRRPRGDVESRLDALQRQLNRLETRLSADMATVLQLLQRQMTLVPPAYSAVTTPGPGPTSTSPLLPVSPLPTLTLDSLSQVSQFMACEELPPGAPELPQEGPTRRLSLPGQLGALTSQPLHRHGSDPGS

Row | SMILES | hERG current change (%, negative = inhibition) at 1uM [%]
1 | Cc1ccc(C2/C(=C(\O)c3cnn(-c4ccccc4)c3C)C(=O)C(=O)N2CCN(C)C)o1 (centres unmarked) | 7.54
2 | COC(=O)c1ccccc1NC(=S)N(Cc1ccc2c(c1)OCO2)Cc1cc2ccc(OC)cc2[nH]c1=O | -1.8
3 | CC(=O)c1cccc(NC(=O)CCCCCn2nnc3ccccc3c2=O)c1 | 6.86
4 | CCN(CC)CCCNC(=O)c1cc2c(=O)n(CC)c3ccccc3c2s1 | 4.1
5 | CCOC(=O)c1ccc(N(C(=O)c2cnccn2)C(C(=O)NC2CCCCC2)c2cn(C)nc2C)cc1 (centres unmarked) | -17.2
6 | Clc1cnc(N/N=C/c2ccncc2)c(Cl)c1 | 10.3
7 | COc1ccc(CC(NC(C)=O)C(=O)NC2CCN(c3nc(C)cc(C)c3C#N)CC2)c(OC)c1 (centres unmarked) | 12
8 | CCOC(=O)c1cccnc1NC(=O)c1ccncc1 | 14.5
9 | O=C(CNC(=S)N(Cc1ccccc1)Cc1cccnc1)NCCc1ccccc1 | 0.0675
10 | CC(=O)N(/N=C/c1ccc([N+](=O)[O-])o1)c1nc2ccccc2c(=O)n1-c1ccccc1 | 6.3
11 | CC(NC(=O)c1ccc(C(C)(C)C)cc1)C(=O)O (centres unmarked) | 9.99
12 | CC(=O)NNC(=O)c1[nH]c2ccc(Cl)cc2c1-c1ccccc1 | 14.7
13 | O=C(Cc1c(O)c2ccccc2[nH]c1=O)NC1CCCCCCC1 | -1.98
14 | Cc1cc(=O)oc2c(C)c(OC(C)C(=O)N3CC[C@@]4(O)CCCC[C@H]4C3)ccc12 (some centres unmarked) | 2.85
15 | CCCC(=O)Nc1ccc(NC(=O)c2ccccc2)nc1 | 13.6
16 | Cc1cccc(OCC(=O)N2CCC(N3CCCCCC3)CC2)c1 | 3.48
17 | O=C(Cn1c2c(c(=O)n3ncnc13)CCC2)N/N=C/c1cccs1 | 20
18 | Cc1cc(NCc2ccccc2)nc(N2CCOCC2)n1 | 3.81
19 | Cc1nn(-c2ccccc2)c(C)c1NC(=O)COC(=O)CC(C)c1ccccc1 (centres unmarked) | 4.03

Row | SMILES | hERG current change (%, negative = inhibition) at 1uM [%]
20 | Cc1ccccc1S(=O)(=O)N1[C@@H](c2cccc(Cl)c2)C(C(=O)O)=CC[C@H]1c1ccc(Cl)cc1 | 3.96
21 | Cc1ccc(OCC(=O)NCCCNC(=O)c2cccnc2)cc1C | 7.2
22 | CC(=O)N=C(N)Sc1nc2ccccc2[nH]1 | 5.28
23 | COCCCNC(=O)CSc1nc2ccccc2c(=O)n1CCc1ccc(S(N)(=O)=O)cc1 | 8.29
24 | Cc1onc(-c2ccccc2)c1C(=O)NNC(=S)NC(=O)c1ccc2c(c1)OCO2 | 9.64
25 | FC(F)(F)c1nc(SCc2ccccc2)n[nH]1 | 13.9
26 | Cc1ccccc1NC(=O)c1ccc2c(c1)OCCO2 | 11
27 | CCOc1ccc2cc(C#N)c(SCC(=O)N3CCC(C)CC3)nc2c1 | 5.56
28 | COc1ccc(CC(=O)NNC(=O)COc2ccc(C)cc2)cc1S(=O)(=O)N1CCOCC1 | 16.9
29 | CCc1nnc(NC(=O)c2ccc3c(=O)n4c(nc3c2)CCCCC4)s1 | 14.4
30 | CC(=O)c1ccc(OC(=O)C2CC(=O)N(c3cccc(C)c3)C2)cc1 (centres unmarked) | -1.15
31 | Cc1ccc(C(=O)Cn2nnc3ccccc32)cc1C | 1.4
32 | O=C(CSc1nc2ccccc2c(=O)[nH]1)NCc1ccc(Cl)cc1 | 1.66
33 | CCCCNS(=O)(=O)c1cccc(S(=O)(=O)N2CCCC2)c1 | 0.0039
34 | Cn1c(Cc2cccs2)nnc1SCC(=O)Nc1ccccc1F | 16.1
35 | COc1ccccc1C(=O)N(CCC1CCCN1C)c1nc2ccccc2s1 (centres unmarked) | 3.79
36 | COc1ccc(CCNC(=O)c2ccc(=O)[nH]c2)cc1OC | 12
37 | COc1ccc(C)cc1NC(=O)c1ccc(CN2CCc3ccccc3C2)cc1 | 14.7
38 | CCCC(=O)NC(Nc1ccccc1OC)C(Cl)(Cl)Cl (centres unmarked) | 8.13

Row | SMILES | hERG current change (%, negative = inhibition) at 1uM [%]
39 | COc1ccc(S(=O)(=O)N(CC(=O)NCc2ccncc2)c2ccc(C)cc2)cc1Br | -28.1
40 | Cc1cc(N(C(=O)c2ccco2)C(C(=O)NC2CCCCC2)c2ccccc2)ccc1-n1cnnn1 (centres unmarked) | 13.2
41 | CC1CCN(C(=O)COC(=O)c2ccc(Br)o2)CC1 | 14.5
42 | CN(C)c1ccc(CN(C(=O)C2COc3ccccc3O2)C2CCS(=O)(=O)C2)cc1 (centres unmarked) | -0.909
43 | C/C(=N\NC(=O)c1ccccc1)c1ccccc1F | -0.463
44 | COC(=O)CNC(=O)c1cn(CCC#N)nc1-c1ccc(F)cc1 | 0.966
45 | Cc1ccc(-c2noc(CN3C(C)CCCC3C)n2)cc1 (centres unmarked) | 8.87
46 | OCCNC(=S)Nc1ccc(Oc2ccccc2)cc1 | 13.8
47 | Nc1nc(F)nc2c1ncn2[C@@H]1O[C@H](CO)[C@@H](O)[C@@H]1O | 16.7
48 | CCCN(CCC)S(=O)(=O)c1ccc(N2CCCC2=O)c([N+](=O)[O-])c1 | -6.51
49 | CN1C(=O)C(=Cc2cn(CC(=O)N3CCCC3)c3ccccc23)C(=O)N(C)C1=O | 7.22
50 | CC(C)(O)c1[nH]c2ccc(C#N)cc2c1C(C)(C)O | 9.14
51 | CCN1C(=O)/C(=C2\C=Cc3cc(C)ccc3N2CC)OC1=S | 14
52 | COc1ccc(NS(=O)(=O)c2cccc(C(=O)NCCCn3ccnc3)c2)cc1 | 15.7
53 | CC1(C)C(=O)Nc2ccccc2N1C(=O)COC(=O)c1cc([N+](=O)[O-])ccc1N | 12
54 | O/N=C(\c1ccccc1)c1nccc2ccccc12 | 8.46
55 | CC1CCN(C(=O)c2nc[nH]c2C(=O)OCCNC(=O)OC(C)(C)C)CC1 | 14.4
56 | CC1CC(=O)C2=C(C1)OC(N)=C(C#N)C2c1coc2ccccc2c1=O (centres unmarked) | 9.7
